Laboratory results reported in the GPR68 mutational scans of Howard et al. (2025).
The least precise scores are not listed. Two further conditions of the source, in which the scores hardly spread, are not listed. In variant names, del marks residues removed and ins residues inserted between the two positions. For some of these results: The concentration of ogerin is not given here.

B1: GPR68, Q15743 (parent)
chain: MGNITADNSSMSCTIDHTIHQTLAPVVYVTVLVVGFPANCLSLYFGYLQIKARNELGVYLCNLTVADLFYICSLPFWLQYVLQHDNWSHGDLSCQVCGILLYENIYISVGFLCCISVDRYLAVAHPFRFHQFRTLKAAVGVSVVIWAKELLTSIYFLMHEEVIEDENQHRVCFEHYPIQAWQRAINYYRFLVGFLFPICLLLASYQGILRAVRRSHGTQKSRKDQIQRLVLSTVVIFLACFLPYHVLLLVRSVWEASCDFAKGVFNAYHFSLLLTSFNCVADPVLYCFVSETTHRDLARLRGACLAFLTCSRTGRAREAYPLGAPEASGKSGAQGEEPELLTKLHPAFQTPNSPGSGGFPTGRLA

Experiments:
[1] = variants of: B1; assay: cAMP reporter score (Enrich2 score, wild type = 0); higher = more signal; HEK293T, FACS bins
[2] = variants of: B1; assay: surface expression score (Enrich2 score, wild type = 0); higher = more signal; HEK293T, FACS bins

Variant	cAMP reporter score ([1]; pH 5.5)	cAMP reporter score ([1]; pH 6, modulator: ogerin)	cAMP reporter score ([1]; pH 6.5, modulator: ogerin)	surface expression score [2]	cAMP reporter score ([1]; pH 6)
F359_P360insG	0.087	-0.419	0.391	-0.686	–
G357_G358insGS	0.227	0.273	1	0.611	–
N352I	0.137	-0.008	0.331	-0.193	0.952
N352C	0.525	0.43	-0.494	0.173	-0.611
N352L	0.725	0.874	-0.43	0.486	0.261
N352S	0.179	0.514	0.515	0.465	0.138
N352Y	0.362	0.318	0.071	-0.027	0.089
N352G	1.26	0.641	0.798	0.546	-0.698
N352K	0.558	0.554	0.708	0.113	0.011
N352A	0.466	0.472	0.581	1.59	0.159
N352P	-0.07	0.502	0.232	0.72	0.575
N352D	-0.706	-0.331	-0.06	0.04	-0.151
N352T	0.196	0.894	0.254	0.508	–
N352E	-0.417	-0.717	-0.427	–	–
N352Q	0.617	0.111	-0.076	1.29	-0.658
N352W	0.951	0.857	0.541	-0.689	-0.345
N352M	0.867	0.664	1.25	0.902	0.397
N352F	0.772	0.81	0.691	-0.084	–
N352H	0.372	0.46	0.534	0.361	0.083
N352R	0.009	0.144	-0.646	0.107	-0.863
F348_Q349insG	0.738	–	–	0.509	0.694
P351_N352del	0.479	0.064	0.488	0.321	-0.17
L341V	1.36	1.9	1.77	1.51	1.01
L341Y	-0.306	-0.11	-0.555	0.264	-0.079
L341W	0.238	0.47	-0.209	0.349	-0.364
N352del	1.18	0.585	0.27	0.173	0.519

Variant	cAMP reporter score ([1]; pH 5.5)	cAMP reporter score ([1]; pH 6, modulator: ogerin)	cAMP reporter score ([1]; pH 6.5, modulator: ogerin)	surface expression score [2]	cAMP reporter score ([1]; pH 6)
L341del	1.47	1.5	1.19	2.32	0.856
S353_G355del	0.288	0.288	0.332	-0.088	-0.758
L364H	1.48	1.63	1.33	–	1.79
L364G	1.57	1.43	1.66	1.28	1.03
L364A	1.37	1.12	1.66	1.73	0.561
L364C	0.844	1.31	0.205	0.836	0.94
L364F	-0.355	-0.302	0.261	0.053	0.102
L364E	0.8	0.401	0.948	0.966	0.725
K343_L344insG	-0.138	0.237	-0.398	0.142	0.312
S356_G357del	0.572	0.158	0.025	-0.364	-0.229
L341_T342del	0.95	0.94	1.37	1.17	–
N352_S353insGS	1.1	0.983	1.27	0.94	0.24
F348_Q349insGSG	0.553	0.692	1.1	1.3	0.059
A347_F348insGSG	0.633	0.772	1.19	0.502	0.559
L341_T342insGSG	0.836	0.38	0.857	0.851	–
R363_L364insGSG	0.416	0.598	0.881	0.478	0.046
N352_S353insG	-0.425	-0.406	0.94	-0.516	-0.445
L344del	0.745	-0.034	-0.441	1.2	–
P346del	3.15	-0.298	3.15	1.1	1.67
L341_T342insG	-0.396	–	-0.233	–	1.34
T361V	0.348	0.316	-0.343	-0.085	-0.252
T361W	-0.484	0.333	-0.721	0.037	-0.52
T361I	-0.01	-0.108	-0.339	-0.789	0.001
T361F	0.077	0.266	0.09	-0.42	-0.667
T361D	-0.729	-0.841	-0.561	-0.497	0.947
T361N	2.17	–	0.99	2.73	2.78

Variant	cAMP reporter score ([1]; pH 5.5)	cAMP reporter score ([1]; pH 6, modulator: ogerin)	cAMP reporter score ([1]; pH 6.5, modulator: ogerin)	surface expression score [2]	cAMP reporter score ([1]; pH 6)
T361H	-0.613	-1.07	-1.24	0.382	-1.41
T361M	0.066	0.009	-0.259	0.641	-0.28
T361Y	0.739	-0.195	–	-0.333	–
T361K	-0.206	0.25	-0.101	-0.231	-1.25
T361A	0.26	0.378	0.009	0.389	-0.358
T361L	0.525	0.707	0.065	-0.101	-0.035
T361S	0.542	0.658	0.732	0.136	-1.04
T361P	-0.49	0.509	-0.636	0.033	-0.108
T361C	0.398	0.387	0.51	-0.429	0.294
T361E	0.012	1.06	0.56	0.612	0.313
T361R	0.592	0.58	1.95	0.745	–
Q349_T350del	0.82	0.935	0.597	0.478	0.002
P354K	0.983	0.888	0.436	0.285	-0.615
P354W	-0.383	0.164	-0.629	-0.739	0.26
P354Q	0.479	0.354	0.682	0.675	0.22
P354S	1.75	2.62	–	–	0.153
P354A	2.32	1.3	2.77	1.05	–
P354R	0.794	0.52	-0.811	0.463	-0.498
P354M	1.36	1.75	1.47	0.956	0.656
P354T	1.34	2.57	2.26	1.44	1.09
P354G	0.226	0.264	-0.351	0.011	-0.528
P354F	0.547	1.36	–	–	1.46
P354D	-0.312	-0.062	0.672	0.061	-0.669
P354I	0.402	0.343	0.512	-0.628	0.863
P354L	1.27	1.41	1.38	1.65	–
P354N	0.786	0.572	0.314	0.039	-0.34

Variant	cAMP reporter score ([1]; pH 5.5)	cAMP reporter score ([1]; pH 6, modulator: ogerin)	cAMP reporter score ([1]; pH 6.5, modulator: ogerin)	surface expression score [2]	cAMP reporter score ([1]; pH 6)
P354V	0.392	-0.024	0.133	-0.083	-0.308
P354E	1.82	1	0.77	1.48	1
P354H	0.56	0.564	0.073	0.364	0.032
P354C	0.057	0.193	0.315	-0.045	–
T342_L344del	0.478	1.02	1.13	1.26	1.05
P360E	-0.304	-0.229	-0.021	0.03	0.13
P360C	1.48	1.16	1.23	1.02	1.13
P360W	0.418	0.431	-0.15	-0.289	-0.426
P360D	0.527	0.274	0.768	0.604	–
P360F	0.76	1.13	1.2	-0.266	1.13
P360S	0.655	0.49	1.31	0.285	-0.018
P360I	0.516	0.246	-0.039	0.021	-0.102
P360Q	0.069	-0.361	-0.707	-0.661	-1.12
P360A	0.712	-0.454	0.022	0.98	0.51
P360G	0.754	0.45	0.743	0.465	–
P360N	1.64	1.48	-0.43	2.41	0.532
P360V	0.6	0.062	0.674	-0.16	0.213
P360Y	0.855	0.124	0.378	1.17	–
P360L	0.704	1.12	0.579	0.714	0.297
P360M	0.817	1.05	1.44	0.774	0.548
P360H	-0.512	0.762	0.82	-0.424	1.12
P360R	0.683	0.253	0.689	0.096	-0.189
P360K	0.067	0.027	-0.291	0.03	–
P360T	0.128	0.3	-0.296	-0.172	-0.011
S353_P354insG	0.116	-0.184	-0.447	0.019	0.152
G358K	0.558	1.17	2.36	0.685	2.59

Variant	cAMP reporter score ([1]; pH 5.5)	cAMP reporter score ([1]; pH 6, modulator: ogerin)	cAMP reporter score ([1]; pH 6.5, modulator: ogerin)	surface expression score [2]	cAMP reporter score ([1]; pH 6)
G358C	0.356	0.52	0.45	-0.087	0.265
G358N	-0.046	0.309	0.644	0.504	0.767
G358R	0.336	0.755	0.493	0.625	-0.749
G358P	0.589	0.74	0.563	0.066	0.646
G358L	1.66	1.25	1.07	1.02	0.428
G358I	0.244	0.609	0.931	-0.519	-0.777
G358T	0.518	0.659	0.577	0.204	-0.156
G358Q	0.834	0.479	0.114	0.388	-0.181
G358V	0.465	0.633	-0.176	-0.799	–
G358S	0.818	1.35	0.869	0.62	0.305
G358E	-0.971	-0.642	-0.41	–	-1.1
G358M	1.14	1.25	–	0.763	1.84
G358A	0.905	–	1.54	1.69	–
G358W	0.87	1	0.482	-0.021	-0.11
G358H	0.103	1.62	–	1.77	1.73
G358D	0.715	0.409	0.628	1.75	0.05
G358Y	0.407	0.294	-0.489	-0.249	-0.958
G355_S356insGS	0.27	0.631	0.343	0.739	0.106
R363del	-0.118	0.149	0.49	-0.084	-0.48
F359del	0.492	-0.237	0.228	0.085	1.05
G358_F359insGSG	1.02	1.06	1.3	1.78	0.496
R363_L364insGS	1.28	0.973	2.3	1.15	0.418
